Among all 50,000 compounds or so, about 800 (1.6%) showed an effect of 50% or more. Some of the results follow.

For this experiment, the target named is Bcl-2-like protein 10 (Homo sapiens) (UniProt Q9HD36). Description: Phenotype converters, Bcl-B/TR3 peptide binding displacement, primary biochemical FP (AID 1240).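 Also: 0% = Bcl-B with tracer peptide and DMSO and 100% = tracer peptide lacking Bcl-B.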 Conditions: GST-Bcl-B / FITC-TR3 peptide fluorescence polarization; stronger effect = higher value; compound at 3.75 mg/L. Background: Polarisation of emitted light reports the rotation of a fluorescent probe.
UniProt Q9HD36, sequence (Q9HD36 whole entry, looked up): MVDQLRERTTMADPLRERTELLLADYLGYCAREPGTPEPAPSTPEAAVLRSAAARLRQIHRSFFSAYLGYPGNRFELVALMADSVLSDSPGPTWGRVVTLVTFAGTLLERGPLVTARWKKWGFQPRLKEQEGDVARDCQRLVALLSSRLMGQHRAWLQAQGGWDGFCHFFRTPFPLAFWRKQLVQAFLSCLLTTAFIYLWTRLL
As to `Cc1ccc(OCc2nc(-c3cccnc3)no2)c(Br)c1`, the displacement is 10.7%.

`CCOC(=O)C(C)Oc1ccc2c(C)c(C)c(=O)oc2c1` (stereo not drawn): the displacement was found to be 10.1%. Consider `CCN1C(=O)/C(=C\c2cn(Cc3ccc(F)cc3)c3ccccc23)SC1=S`, for which the displacement turned out to be 5.1%. In the case of `CC(=O)CC(=O)Nc1c(Cl)cccc1Cl` it was 4.1%; in that of `Cc1cccc(CC(C(=O)O)C(C)C(=O)O)c1` (stereo not drawn), 4.5%. `O=C(Nc1ccccc1OCC(F)(F)C(F)F)c1ccc(Cl)c([N+](=O)[O-])c1`: the displacement was -15.3%.

For the molecule `COc1ccc(CNC(=O)C(=O)NCc2ccc(C)cc2)cc1`, the displacement was -15%.

Consider `Cc1cccc(OCc2nc3cc(Cl)ccc3c(=O)o2)c1`, for which the displacement was -9.6%. For the molecule `O=C1C(=O)N(c2cccc([N+](=O)[O-])c2)C(c2ccc(F)cc2)/C1=C(/O)c1ccccc1` (stereo not drawn), the displacement came to 2.1%.

For `S=C(Nc1ccc(Cl)cc1Cl)NC1CCCC1`, the displacement was determined as 0.3%.

For the molecule `COc1ccc(N(CC(=O)Nc2ccc(Cl)cc2)S(=O)(=O)c2ccccc2)cc1Cl`, the displacement turned out to be 0.3%.

On to `COC(C(=O)N/N=C/c1cn(-c2ccccc2)nc1-c1ccccc1)c1ccccc1` (stereo not drawn), for which the displacement was -7.1%. To `COc1ccc(C(=O)N2CCN(Cc3ccc(Cl)cc3)CC2)cc1OC` belongs 3.8%; to `Cc1ccc(C(=O)Nc2ccc(Cc3ccncc3)cc2)cc1C`, 23.6%; to `O=C(c1ccc(Cl)cc1)N1CCN(c2ccc(C(F)(F)F)cc2[N+](=O)[O-])CC1`, -2.7%. `O=C(Nc1ccc(Cl)c(Cl)c1)c1ccc2c(c1)OCCO2`: the displacement is 10.2%. As to `O=C(/C=C(\Nc1ccccc1)c1ccccc1)c1cccc2ccccc12`, the displacement stood at 9.1%.

In the case of `CCOc1cccc(C(=O)Nc2sc(C)cc2C(=O)OC)c1`, the displacement was 18.7%. Consider `CCCc1cc(C(=O)OC)c(NC(=O)c2cccc(OC(C)C)c2)s1`, for which the displacement is -3.4%. In the case of `O=C(/C=C/c1ccccc1)Nc1ccc(-c2nc3ccccc3o2)c(O)c1` it was 127%; in that of `COc1ccc(C(=O)NCCOc2ccccc2OC)cc1OC`, -8.9%; in that of `CC1=NN(C(=O)c2ccncc2)C(O)(C(F)(F)F)C1` (stereo not drawn), -6.3%. As for `CC(=O)NC1=NC(=O)/C(=C\c2ccc(-c3ccccc3C(=O)O)o2)S1`, the displacement is 14.5%.

Turning to `COc1ccc(C)cc1NC(=O)c1ccccc1I`, the displacement was -9.1%.

Regarding `NS(=O)(=O)c1ccc(CNS(=O)(=O)c2ccc([N+](=O)[O-])cc2)cc1`, the displacement is -5.3%. In the case of `O=C(Nc1cccc(-c2cn3ccccc3n2)c1)c1ccccc1Cl` it was 8%; in that of `O=C(Nc1ccc(Cl)c(-c2nc3ccccc3o2)c1)c1cccc(F)c1`, -5.1%. `CC(=O)Oc1ccc(N2C(=O)c3ccc(C(=O)c4cccc([N+](=O)[O-])c4)cc3C2=O)cc1`: the displacement was 2%. To `CS(=O)(=O)N1CCN(CC(O)Cn2c3ccccc3c3ccccc32)CC1` (stereo not drawn) belongs 12.7%; to `Cc1ccc(C(=O)N/C(=C/c2ccc(Br)cc2)c2nc3ccccc3[nH]2)cc1`, -6.2%; to `Cc1cc(C)c(N2C(=O)c3ccc(-c4nc5ccccc5c(=O)o4)cc3C2=O)c(C)c1`, 6.5%.

Consider `Cc1ccc(-c2noc(-c3ccc([N+](=O)[O-])cc3)n2)cc1`, for which the displacement is 6.2%. Turning to `O=C(Nc1ccc(Nc2ccccc2)cc1)c1ccccc1`, the displacement worked out at 10.1%. In the case of `COCC(C)NCc1cccc(Oc2ccccc2)c1` (stereo not drawn) it was -0.2%; in that of `O=C(COC(=O)c1cccc(C#Cc2ccccc2)c1)c1ccc(Br)cc1`, 6.3%. To `Cc1occc1C(=O)NC1CCCCCC1` belongs -13.4%; to `CCC(CC)N1CCN(C(=O)c2cc(OC)c(OC)c(OC)c2)CC1`, -8.7%. To `COc1ccc(/C=C/C(=O)OCc2ccc([N+](=O)[O-])cc2)cc1S(=O)(=O)NCC1CCCO1` (stereo not drawn) belongs -11%. As to `CC(=O)NN1C(=O)/C(=C\c2ccc(F)cc2)SC1=S`, the displacement amounted to 22.8%. For the molecule `CCCC(=O)Nc1nnc(Cc2nnc(NC(=O)CCC)s2)s1`, the displacement was found to be 16.4%. Turning to `O=C(NCCO)/C(=C/c1ccc(Br)cc1)NC(=O)c1cccs1`, the displacement was -8.8%.

Take `C#Cc1cccc(NC(=O)c2ccc(Oc3ccc(NC(=O)c4cccc(C#C)c4)cc3)cc2)c1`: the displacement was found to be 1%.

`Nc1ccc(-c2ccc(N3C(=O)c4cccc5c(C(=O)c6ccccc6)ccc(c45)C3=O)cc2)cc1`: the displacement is -12.1%. To `COc1ccc(S(=O)(=O)N(CCc2ccccc2)CC(=O)Nc2cc(Cl)ccc2OC)cc1` belongs -14.8%; to `CC(=O)N1CCN(c2ccc(NC(=O)/C=C/c3ccccc3)cc2)CC1`, 11.8%; to `COc1ccc(CNC(=O)c2ccc(Cl)c(Cl)c2)cc1`, 3.7%. In the case of `O=C1NC(=Nc2cccnc2)S/C1=C\c1cccc(F)c1` it was 146%; in that of `COC(=O)CN(C#N)c1nc(NC(C)C)nc(NC(C)C)n1`, 7%; in that of `Cc1cccc(/C=N\NC(=O)COc2ccc(-c3ccccc3)cc2)c1O`, 3.7%. On to `COc1ccc(COC(=O)C2=C(C)NC3=C(C(=O)CC(C)(C)C3)C2c2ccsc2)cc1` (stereo not drawn), for which the displacement is -7.3%.

Consider `COc1ccc(N2C(=O)c3ccccc3NC2c2ccccc2)cc1` (stereo not drawn), for which the displacement came out at 13.7%. Consider `CCN(CC)CCCOC(=O)c1ccc(O)c(OC)c1`, for which the displacement amounted to 11.5%.

Turning to `CCc1ccccc1N(CC(=O)Nc1ccc(OC)cc1OC)S(C)(=O)=O`, the displacement is -6.2%. Take `Cc1c(Cl)cccc1NC(=O)C1CCCCC1C(=O)O` (stereo not drawn): the displacement was -4.8%.

Regarding `O=[N+]([O-])c1ccc(CSc2nnnn2-c2ccccc2)cc1`, the displacement is -7.6%. To `O=C(N/N=C/c1cc(Br)cc(I)c1O)c1cccc([N+](=O)[O-])c1` belongs 38.9%; to `O=[N+]([O-])c1ccc(S(=O)(=O)N/N=C/c2ccco2)cc1`, 2.2%; to `COc1ccc(C2NN=C(Cc3ccccc3)S2)cc1OC` (stereo not drawn), 0.7%.

Turning to `COc1ccc(NS(=O)(=O)c2cc(-c3nnnn3C)ccc2OC)cc1`, the displacement was determined as 5.9%.

With `O=C1C(Cl)=C(NCCc2ccccc2)C(=O)N1c1ccc(Br)cc1`, the displacement is 29.4%. For `Cc1ccc(S(=O)(=O)N2CCCC2C(=O)Nc2nccs2)cc1` (stereo not drawn), the displacement was -7%.

Regarding `O=C(NC(=S)Nc1cc(Cl)c(Cl)cc1Cl)c1ccco1`, the displacement is 8.2%.

For the molecule `O=S(=O)(c1ccc(Br)cc1)n1ccc2ccccc21`, the displacement was found to be 17.9%. To `O=C1C(Cl)=C(Nc2ccc3c(c2)OCO3)C(=O)N1c1ccccc1` belongs -3.2%; to `CC(NC(=O)C12CC3(C)CC(C)(CC(C)(C3)C1)C2)C(=O)O` (stereo not drawn), 3.5%. With `Cc1ccccc1-c1n[nH]c(=S)n1C1CCCCC1`, the displacement is 27.4%. In the case of `Cc1c(OCC(=O)OCc2ccccc2)ccc2c3c(c(=O)oc12)CCC3` it was 11%.

`COc1cccc(N2C(=O)C(=O)/C(=C(\O)c3ccccc3)C2c2ccccc2OC)c1` (stereo not drawn): the displacement was -4.1%. Take `COC(=O)c1c(C)oc2cc(Br)c(OC(C)C(=O)OC)cc12` (stereo not drawn): the displacement was 7.2%. For `O=C(c1nn2c(c1Cl)NC(c1cccs1)CC2C(F)(F)F)N1CCOCC1` (stereo not drawn), the displacement worked out at 4.8%. On to `O=C1CN(S(=O)(=O)c2ccccc2)CCN1S(=O)(=O)c1ccccc1`, for which the displacement worked out at 15.5%. As to `C=CCOc1c(Cl)cc(CNn2cnnc2)cc1OC`, the displacement was -3.1%.

`CC(=O)c1ccc(NC(=O)c2cc3nc(-c4ccc([N+](=O)[O-])cc4)cc(C(F)(F)F)n3n2)cc1`: the displacement is 2.3%.

As to `COc1ccccc1/C=C/C(=O)c1c(-c2ccccc2)c2cc(C)ccc2[nH]c1=O`, the displacement is -18.9%. In the case of `O=C(NCC1(c2ccccc2)CCOCC1)c1ccco1` it was -3.7%; in that of `CCOC(=O)Nc1ccc2c(c1)N(C(=O)N1CCOCC1)c1ccccc1CC2`, 11.6%; in that of `CCOc1cccc(C(=O)Nc2cc(NC(=O)c3cccc(OCC)c3)cc(C(=O)O)c2)c1`, 11%. In the case of `Cc1ccc(N2CC(C(=O)OCc3ccc([N+](=O)[O-])cc3)CC2=O)cc1` (stereo not drawn) it was -1%; in that of `Cc1cc(NC(=O)c2cccc([N+](=O)[O-])c2)ccc1-c1cc2ccccc2oc1=O`, 3.9%; in that of `COc1cccc(NC(=S)NC(=O)c2ccc(Cl)cc2)c1`, -2.5%. In the case of `CCCOc1ccc(C(=O)Nc2ccc3ccccc3c2)cc1` it was 11.2%; in that of `Cc1nc2ccccc2c(=O)n1N(c1ccccc1)c1ccccc1`, -5.3%; in that of `Cc1ccc(S(=O)(=O)N2CCCCCC2)cc1`, -12.9%. With `COCCOC(=O)c1c(C)oc2ccc(OCc3cccc(Cl)c3)cc12`, the displacement stood at 11.2%. In the case of `CC(C)c1ccc(/C=C2\SC(=S)N(Cc3ccco3)C2=O)cc1` it was 5.6%. For the molecule `CCOC(=O)c1c(NC(=O)COc2ccc(-c3ccccc3)cc2)sc(C(C)=O)c1C`, the displacement was 15.8%. For `COc1ccc(C2Nc3ccccc3NC3=C2C(=O)CC(c2ccccc2)C3)cc1` (stereo not drawn), the displacement is -8.8%. In the case of `CCOC(=O)Cc1nnc(NC(=O)Nc2ccc(Cl)cc2)s1` it was 6.5%; in that of `NC(CC(=O)O)c1ccccc1` (stereo not drawn), 0.7%; in that of `Cc1ccc(Nc2cc(=O)n(C)c(=O)[nH]2)cc1C`, 1.6%.

With `CSc1nc(C)c2c(n1)OC(CN1C(=O)c3ccccc3C1=O)C2` (stereo not drawn), the displacement worked out at 1.9%. With `O=C(COc1ccc([N+](=O)[O-])cc1)Nc1ccc(I)cc1Cl`, the displacement is 24%. For `O=C(O)CCCN1C(=O)/C(=C\c2ccc(-c3ccc(Br)cc3)o2)SC1=S`, the displacement is -65.6%.

Regarding `CCCc1[nH]n(-c2nc3ccccc3s2)c(=O)c1C=NCCCO`, the displacement is -15.5%. Turning to `CN(C)c1ccc(/C=C/C=N/NS(=O)(=O)c2ccc(C(C)(C)C)cc2)cc1`, the displacement is 9.2%.

Regarding `O=C1CC(c2ccccc2)CC2=C1C(c1ccc(F)c(F)c1)Nc1ccccc1N2` (stereo not drawn), the displacement was -1.9%.

As for `COc1cccc(OCCNC(=O)Cc2cccc3ccccc23)c1`, the displacement worked out at 12%. As for `CC1CCN(C(=O)c2ccc(I)cc2)CC1`, the displacement was 10.2%. As for `Cc1ccc(NC(=O)CSc2nnc(NC(=O)CN3CCCCC3)s2)cc1`, the displacement is -6.7%. In the case of `O=C(Nc1ccc2oc(-c3cccc4c(Br)cccc34)nc2c1)c1ccco1` it was -22.2%. As to `CCC(=O)N/C(N)=N/c1nc2ccccc2s1`, the displacement was 6.3%. Regarding `O=C(CCCN1C(=O)/C(=C\c2cccc(Br)c2)SC1=S)Nc1ccc(F)cc1`, the displacement amounted to 13.2%. In the case of `CCc1ccc(OCC(=O)Nc2ccc(O)c(-c3nc4cc(C)ccc4o3)c2)cc1` it was 7.4%. To `COc1ccc(-n2c(/C=C3/C(=O)N(C)c4ccc(C)cc43)nc3ccccc3c2=O)cc1` belongs -8.4%; to `Cc1cc(C)c(NC(=S)NC(NC(=O)c2ccccc2)C(Cl)(Cl)Cl)c(C)c1` (stereo not drawn), -0.7%; to `O=C1NC(=S)S/C1=C\c1ccc(OC(=O)c2ccccc2I)cc1`, 9.6%. Take `Cc1ccc(S(=O)(=O)N2c3ccccc3C(C)CC2(C)C)cc1` (stereo not drawn): the displacement is 13.2%. Take `O=C(NN1C(=O)/C(=C/c2ccc(Cl)cc2)SC1=S)c1cccc(O)c1`: the displacement is -14.2%.

Values taken from PubChem BioAssay AID1240 (Sanford-Burnham Center for Chemical Genomics, 2008).
